These results are taken from PMC12386666.

The chains behind the UniProt entries cited, without tags or fusion partners. Residues count along the entry.
UniProt Q9BXM7, residues 78-581: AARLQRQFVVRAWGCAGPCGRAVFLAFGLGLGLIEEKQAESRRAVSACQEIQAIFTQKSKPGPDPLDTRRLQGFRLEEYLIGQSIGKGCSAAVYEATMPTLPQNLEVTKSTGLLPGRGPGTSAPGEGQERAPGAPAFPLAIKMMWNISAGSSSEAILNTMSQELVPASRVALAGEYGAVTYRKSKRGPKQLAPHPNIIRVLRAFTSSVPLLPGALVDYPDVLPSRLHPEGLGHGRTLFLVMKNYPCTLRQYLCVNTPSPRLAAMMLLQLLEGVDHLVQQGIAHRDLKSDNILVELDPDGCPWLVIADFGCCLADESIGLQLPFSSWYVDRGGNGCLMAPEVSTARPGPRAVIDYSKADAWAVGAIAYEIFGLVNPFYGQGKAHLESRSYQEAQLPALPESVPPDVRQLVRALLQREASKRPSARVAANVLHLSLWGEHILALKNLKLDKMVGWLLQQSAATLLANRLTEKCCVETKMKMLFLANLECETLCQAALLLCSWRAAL

These are yes or no findings as the source states them, for the method shown. Binding seen in cells or lysates may run through a third protein. Some binding calls cover weakened binding; strength is not graded here. Sequences can lack the tags named with a protein.

The target in assay [1] is T1, HA-synphilin-1 (wild-type) (UniProt Q9Y6H5).
T1 sequence: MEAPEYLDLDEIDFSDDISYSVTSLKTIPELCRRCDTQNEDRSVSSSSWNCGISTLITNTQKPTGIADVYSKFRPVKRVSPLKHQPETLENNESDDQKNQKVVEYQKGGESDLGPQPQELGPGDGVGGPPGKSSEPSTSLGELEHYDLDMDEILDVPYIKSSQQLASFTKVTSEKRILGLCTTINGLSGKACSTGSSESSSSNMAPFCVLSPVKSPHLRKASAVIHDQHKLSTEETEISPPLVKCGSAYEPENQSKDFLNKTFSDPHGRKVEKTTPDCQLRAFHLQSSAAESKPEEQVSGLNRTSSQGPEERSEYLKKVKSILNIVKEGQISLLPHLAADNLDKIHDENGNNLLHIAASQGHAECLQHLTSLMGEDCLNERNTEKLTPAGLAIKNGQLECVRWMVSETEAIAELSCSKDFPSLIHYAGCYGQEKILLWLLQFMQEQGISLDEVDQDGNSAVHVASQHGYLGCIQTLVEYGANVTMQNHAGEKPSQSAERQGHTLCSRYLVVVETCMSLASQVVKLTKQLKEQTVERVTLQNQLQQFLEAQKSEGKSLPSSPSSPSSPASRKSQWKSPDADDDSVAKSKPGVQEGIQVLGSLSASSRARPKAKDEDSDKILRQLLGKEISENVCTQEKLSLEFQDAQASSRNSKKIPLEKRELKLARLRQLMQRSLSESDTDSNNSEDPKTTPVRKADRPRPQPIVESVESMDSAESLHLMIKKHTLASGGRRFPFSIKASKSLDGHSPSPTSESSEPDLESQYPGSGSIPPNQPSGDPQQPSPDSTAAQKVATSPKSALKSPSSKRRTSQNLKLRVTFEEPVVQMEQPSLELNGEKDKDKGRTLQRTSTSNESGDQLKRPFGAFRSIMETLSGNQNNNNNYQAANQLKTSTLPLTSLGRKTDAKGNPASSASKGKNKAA
As to the kind of experiment: co-IP; transfected HEK293 cells lysed; synphilin-1 immunoprecipitated with anti-HA, co-precipitated proteins detected with anti-myc; lysis buffer 50 mM Tris-HCl pH 7.4, 140 mM NaCl, 1% Triton X-100, 0.1% SDS; washes with 500 mM NaCl.

Another assay has as its target T2, HA-SIAH1 (UniProt Q8IUQ4).
T2 sequence: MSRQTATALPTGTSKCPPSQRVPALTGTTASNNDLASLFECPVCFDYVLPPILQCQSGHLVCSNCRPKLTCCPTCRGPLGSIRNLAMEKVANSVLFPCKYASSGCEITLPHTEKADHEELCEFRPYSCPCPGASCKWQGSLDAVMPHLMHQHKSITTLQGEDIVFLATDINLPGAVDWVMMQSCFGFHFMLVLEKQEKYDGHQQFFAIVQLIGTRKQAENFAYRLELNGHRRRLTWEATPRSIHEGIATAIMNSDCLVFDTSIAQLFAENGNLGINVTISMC
As to the kind of experiment: co-IP; HEK293 cells transfected with myc-synphilin-1 and HA-SIAH1, without or with His-CDK5, His-p25 or His-CDK5 dominant negative; SIAH1 immunoprecipitated with anti-HA, synphilin-1 detected with anti-myc.

The next assay addresses myc-PINK1 (UniProt Q9BXM7). Put plainly: co-IP; HEK293 cells transfected with myc-PINK1 and HA-synphilin-1 (wild-type, S566E or S566A), without or with His-CDK5 and His-p25; PINK1 immunoprecipitated with anti-myc, synphilin-1 detected with anti-HA.
A further assay deals with T3, myc-SIAH1 (UniProt Q8IUQ4).
T3 sequence: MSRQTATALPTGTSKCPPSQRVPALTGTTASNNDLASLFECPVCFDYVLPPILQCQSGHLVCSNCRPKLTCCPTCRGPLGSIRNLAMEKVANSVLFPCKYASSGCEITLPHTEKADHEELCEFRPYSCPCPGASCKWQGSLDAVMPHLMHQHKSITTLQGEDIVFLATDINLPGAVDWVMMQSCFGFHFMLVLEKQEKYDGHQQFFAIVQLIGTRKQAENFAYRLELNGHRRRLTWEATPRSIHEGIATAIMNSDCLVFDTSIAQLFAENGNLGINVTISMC
As to the kind of experiment: co-IP; HEK293 cells transfected with HA-synphilin-1 (wild-type or S566A) and myc-SIAH1; SIAH1 immunoprecipitated with anti-myc, synphilin-1 detected with anti-HA.

Turning to “myc-CDK5 (from UniProt Q00535 1-292) (enzyme)”, the binding entry in assay [1] is listed as “binds”. On the same count and under the same terms, next, myc-FKBP12 (from UniProt P62942 1-108): “no binding”.

B1: myc-synphilin-1 (protein, UniProt Q9Y6H5 1-919)
chain: MEAPEYLDLDEIDFSDDISYSVTSLKTIPELCRRCDTQNEDRSVSSSSWNCGISTLITNTQKPTGIADVYSKFRPVKRVSPLKHQPETLENNESDDQKNQKVVEYQKGGESDLGPQPQELGPGDGVGGPPGKSSEPSTSLGELEHYDLDMDEILDVPYIKSSQQLASFTKVTSEKRILGLCTTINGLSGKACSTGSSESSSSNMAPFCVLSPVKSPHLRKASAVIHDQHKLSTEETEISPPLVKCGSAYEPENQSKDFLNKTFSDPHGRKVEKTTPDCQLRAFHLQSSAAESKPEEQVSGLNRTSSQGPEERSEYLKKVKSILNIVKEGQISLLPHLAADNLDKIHDENGNNLLHIAASQGHAECLQHLTSLMGEDCLNERNTEKLTPAGLAIKNGQLECVRWMVSETEAIAELSCSKDFPSLIHYAGCYGQEKILLWLLQFMQEQGISLDEVDQDGNSAVHVASQHGYLGCIQTLVEYGANVTMQNHAGEKPSQSAERQGHTLCSRYLVVVETCMSLASQVVKLTKQLKEQTVERVTLQNQLQQFLEAQKSEGKSLPSSPSSPSSPASRKSQWKSPDADDDSVAKSKPGVQEGIQVLGSLSASSRARPKAKDEDSDKILRQLLGKEISENVCTQEKLSLEFQDAQASSRNSKKIPLEKRELKLARLRQLMQRSLSESDTDSNNSEDPKTTPVRKADRPRPQPIVESVESMDSAESLHLMIKKHTLASGGRRFPFSIKASKSLDGHSPSPTSESSEPDLESQYPGSGSIPPNQPSGDPQQPSPDSTAAQKVATSPKSALKSPSSKRRTSQNLKLRVTFEEPVVQMEQPSLELNGEKDKDKGRTLQRTSTSNESGDQLKRPFGAFRSIMETLSGNQNNNNNYQAANQLKTSTLPLTSLGRKTDAKGNPASSASKGKNKAA
With B1, the binding entry with HA-SIAH1 is recorded as “binds”.

B2: HA-synphilin-1 (wild-type) (protein, UniProt Q9Y6H5 1-919)
chain: MEAPEYLDLDEIDFSDDISYSVTSLKTIPELCRRCDTQNEDRSVSSSSWNCGISTLITNTQKPTGIADVYSKFRPVKRVSPLKHQPETLENNESDDQKNQKVVEYQKGGESDLGPQPQELGPGDGVGGPPGKSSEPSTSLGELEHYDLDMDEILDVPYIKSSQQLASFTKVTSEKRILGLCTTINGLSGKACSTGSSESSSSNMAPFCVLSPVKSPHLRKASAVIHDQHKLSTEETEISPPLVKCGSAYEPENQSKDFLNKTFSDPHGRKVEKTTPDCQLRAFHLQSSAAESKPEEQVSGLNRTSSQGPEERSEYLKKVKSILNIVKEGQISLLPHLAADNLDKIHDENGNNLLHIAASQGHAECLQHLTSLMGEDCLNERNTEKLTPAGLAIKNGQLECVRWMVSETEAIAELSCSKDFPSLIHYAGCYGQEKILLWLLQFMQEQGISLDEVDQDGNSAVHVASQHGYLGCIQTLVEYGANVTMQNHAGEKPSQSAERQGHTLCSRYLVVVETCMSLASQVVKLTKQLKEQTVERVTLQNQLQQFLEAQKSEGKSLPSSPSSPSSPASRKSQWKSPDADDDSVAKSKPGVQEGIQVLGSLSASSRARPKAKDEDSDKILRQLLGKEISENVCTQEKLSLEFQDAQASSRNSKKIPLEKRELKLARLRQLMQRSLSESDTDSNNSEDPKTTPVRKADRPRPQPIVESVESMDSAESLHLMIKKHTLASGGRRFPFSIKASKSLDGHSPSPTSESSEPDLESQYPGSGSIPPNQPSGDPQQPSPDSTAAQKVATSPKSALKSPSSKRRTSQNLKLRVTFEEPVVQMEQPSLELNGEKDKDKGRTLQRTSTSNESGDQLKRPFGAFRSIMETLSGNQNNNNNYQAANQLKTSTLPLTSLGRKTDAKGNPASSASKGKNKAA
Consider B2, for which the binding result with myc-PINK1 and with myc-SIAH1 was “binds” throughout.

B3: HA-synphilin-1 S566E (protein, UniProt Q9Y6H5 1-919)
chain: MEAPEYLDLDEIDFSDDISYSVTSLKTIPELCRRCDTQNEDRSVSSSSWNCGISTLITNTQKPTGIADVYSKFRPVKRVSPLKHQPETLENNESDDQKNQKVVEYQKGGESDLGPQPQELGPGDGVGGPPGKSSEPSTSLGELEHYDLDMDEILDVPYIKSSQQLASFTKVTSEKRILGLCTTINGLSGKACSTGSSESSSSNMAPFCVLSPVKSPHLRKASAVIHDQHKLSTEETEISPPLVKCGSAYEPENQSKDFLNKTFSDPHGRKVEKTTPDCQLRAFHLQSSAAESKPEEQVSGLNRTSSQGPEERSEYLKKVKSILNIVKEGQISLLPHLAADNLDKIHDENGNNLLHIAASQGHAECLQHLTSLMGEDCLNERNTEKLTPAGLAIKNGQLECVRWMVSETEAIAELSCSKDFPSLIHYAGCYGQEKILLWLLQFMQEQGISLDEVDQDGNSAVHVASQHGYLGCIQTLVEYGANVTMQNHAGEKPSQSAERQGHTLCSRYLVVVETCMSLASQVVKLTKQLKEQTVERVTLQNQLQQFLEAQKSEGKSLPSSPSSPSEPASRKSQWKSPDADDDSVAKSKPGVQEGIQVLGSLSASSRARPKAKDEDSDKILRQLLGKEISENVCTQEKLSLEFQDAQASSRNSKKIPLEKRELKLARLRQLMQRSLSESDTDSNNSEDPKTTPVRKADRPRPQPIVESVESMDSAESLHLMIKKHTLASGGRRFPFSIKASKSLDGHSPSPTSESSEPDLESQYPGSGSIPPNQPSGDPQQPSPDSTAAQKVATSPKSALKSPSSKRRTSQNLKLRVTFEEPVVQMEQPSLELNGEKDKDKGRTLQRTSTSNESGDQLKRPFGAFRSIMETLSGNQNNNNNYQAANQLKTSTLPLTSLGRKTDAKGNPASSASKGKNKAA
With B3, the binding entry in the assay with myc-PINK1 is “binds”.

B4: HA-synphilin-1 S566A (protein, UniProt Q9Y6H5 1-919)
chain: MEAPEYLDLDEIDFSDDISYSVTSLKTIPELCRRCDTQNEDRSVSSSSWNCGISTLITNTQKPTGIADVYSKFRPVKRVSPLKHQPETLENNESDDQKNQKVVEYQKGGESDLGPQPQELGPGDGVGGPPGKSSEPSTSLGELEHYDLDMDEILDVPYIKSSQQLASFTKVTSEKRILGLCTTINGLSGKACSTGSSESSSSNMAPFCVLSPVKSPHLRKASAVIHDQHKLSTEETEISPPLVKCGSAYEPENQSKDFLNKTFSDPHGRKVEKTTPDCQLRAFHLQSSAAESKPEEQVSGLNRTSSQGPEERSEYLKKVKSILNIVKEGQISLLPHLAADNLDKIHDENGNNLLHIAASQGHAECLQHLTSLMGEDCLNERNTEKLTPAGLAIKNGQLECVRWMVSETEAIAELSCSKDFPSLIHYAGCYGQEKILLWLLQFMQEQGISLDEVDQDGNSAVHVASQHGYLGCIQTLVEYGANVTMQNHAGEKPSQSAERQGHTLCSRYLVVVETCMSLASQVVKLTKQLKEQTVERVTLQNQLQQFLEAQKSEGKSLPSSPSSPSAPASRKSQWKSPDADDDSVAKSKPGVQEGIQVLGSLSASSRARPKAKDEDSDKILRQLLGKEISENVCTQEKLSLEFQDAQASSRNSKKIPLEKRELKLARLRQLMQRSLSESDTDSNNSEDPKTTPVRKADRPRPQPIVESVESMDSAESLHLMIKKHTLASGGRRFPFSIKASKSLDGHSPSPTSESSEPDLESQYPGSGSIPPNQPSGDPQQPSPDSTAAQKVATSPKSALKSPSSKRRTSQNLKLRVTFEEPVVQMEQPSLELNGEKDKDKGRTLQRTSTSNESGDQLKRPFGAFRSIMETLSGNQNNNNNYQAANQLKTSTLPLTSLGRKTDAKGNPASSASKGKNKAA
In the case of B4, the binding entry in the assay with myc-PINK1 and with myc-SIAH1 was “binds” throughout.
